In PubChem BioAssay (NCI):
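Each compound was tested at five concentrations against cells in 96-well plates for 48 hours. GI50 = concentration required for 50% inhibition of growth. TGI: concentration producing complete growth inhibition.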

test system: NCI-H322M lung; test: NCI anticancer screen, dose series, 48 h

Row | Structure (SMILES) | GI50 [µM] | TGI [µM]
1 | COC(=O)c1c(C(=O)OC)c2n(c1C)[C@@H]([C@@H](C)[C@H]1CC[C@H]3[C@@H]4CCC5=CC(=O)CC[C@]5(C)[C@H]4CC[C@]13C)SC2 | > 100 | > 100
2 | CC(=O)Oc1ccccc1C(=O)NC([Se])=NC1CCCCC1 | 2.81 | 9
3 | C=Cn1cc(C(=O)O)c(=O)c2cc(F)c(N3CCN(c4nccc(-c5nccs5)n4)CC3)cc21 | 0.0667 | 2.39
